Reference: PubChem BioAssay (NCATS)
The inconclusive results got no clear call from the source; some entries with a clear call stand among them for comparison. Potencies beside an inconclusive call are fits to weak or partial responses and may not hold up. The source made the active and inactive calls. Calls come from the whole dose curve; as a rule, active = well fitted curve in the direction sought with a large enough effect; inconclusive = small, poorly fitted or top-dose-only effect, or another doubt; inactive = no such curve, though single readings can be large; an effect the other way counts as inactive or inconclusive.

What was measured:
[1] = system: Nanoluciferase (engineered Oplophorus gracilirostris luciferase); test: Primary Nanoluciferase (NLuc) qHTS assay for identification of artifact compounds. (AID 1845222)
How it was run: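 Compounds are pinned into diluted (1:55) conditioned medium of NLuc-expressing S16 cells and held 15 min at room temperature protected from light. Nano-Glo substrate follows, and luminescence is read 5 min later.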

[2] = Primary fluorescence-based thiol-reactive (MSTI) qHTS assay for identification of artifact compounds. (AID 1845221);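 note: thiol-reactive compounds lower the probe fluorescence signal; nearly all actives have a fitted effect of over 65% in size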
How it was run: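 Compounds were incubated 1 h at room temperature in the dark with the MSTI probe (4 uM) in PBS pH 7.4, 2% DMSO. Signals were normalized between Acetyl-MSTI and MSTI.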

[3] = Quantitative High-Throughput drug screen in 47 multiple myeloma cell lines against the NCATS MIPE library collection: FR4_PLB cell viability assay (AID 1918924; note: nearly all actives have a fitted effect of over 35% in size)
How it was run: (§1)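 Myeloma cells (500 per well) were exposed to MIPE 4.0 compounds by pin transfer and incubated 48 hours at 37C, 5% CO2. Viability was read as ATP by CellTiter-Glo luminescence, normalised to DMSO (100%) and media-only (0%) wells.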

[4] = Quantitative High-Throughput drug screen in 47 multiple myeloma cell lines against the NCATS MIPE library collection: ARP1_JJKsccF8 cell viability assay (AID 1918928; note: nearly all actives have a fitted effect of over 40% in size)
How it was run: (§2)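 500 cells/well; MIPE 4.0 library pinned in; 48 h, 37 °C, 5% CO2; CellTiter-Glo ATP luminescence. Controls: DMSO = 100% viability, medium only = 0%.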

[5] = Quantitative High-Throughput drug screen in 47 multiple myeloma cell lines against the NCATS MIPE library collection: Karpas620_DSMZ cell viability assay (AID 1918959); settings: Karpas620 myeloma viability, CellTiter-Glo ATP luminescence, 48 h; viability (% of DMSO): at 45.8 µM (top of the series); note: nearly all actives have a fitted effect of over 30% in size
How it was run: as §1

[6] = Quantitative High-Throughput drug screen in 47 multiple myeloma cell lines against the NCATS MIPE library collection: Karpas417_ECACC cell viability assay (AID 1918961); settings: Karpas417 myeloma viability, CellTiter-Glo ATP luminescence, 48 h; viability (% of DMSO): at 45.8 µM (top of the series)
How it was run: (§3)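 CellTiter-Glo ATP luminescence gave viability after 48 h compound treatment at 37C of 500 multiple myeloma cells per well. Normalisation used DMSO-only wells as 100% and media-only wells as 0% viability; primary qHTS of approved and investigational drugs.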

[7] = Quantitative High-Throughput drug screen in 47 multiple myeloma cell lines against the NCATS MIPE library collection: KHM11_PLB cell viability assay (AID 1918962); settings: KHM11 myeloma cell viability, CellTiter-Glo ATP luminescence, 48 h; series mostly up to 45.8 µM; note: nearly all actives have a fitted effect of over 35% in size
How it was run: as §1

[8] = Quantitative High-Throughput drug screen in 47 multiple myeloma cell lines against the NCATS MIPE library collection: JIM1_ECACC cell viability assay (AID 1918964); settings: JIM1 myeloma viability, CellTiter-Glo ATP luminescence, 48 h; viability (% of DMSO): at 45.8 µM (top of the series)
How it was run: (§4)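 We plated 500 myeloma cells per well, pinned in MIPE 4.0 compounds, and incubated for 48 hours at 37C. ATP was then quantified with CellTiter-Glo, with DMSO and media-only wells defining 100% and 0%.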

[9] = Quantitative High-Throughput drug screen in 47 multiple myeloma cell lines against the NCATS MIPE library collection: INA6_PLB cell viability assay (AID 1918965; note: nearly all actives have a fitted effect of over 55% in size); settings: INA6 myeloma viability, CellTiter-Glo ATP luminescence, 48 h; viability (% of control): at 45.8 µM (top of the series)
How it was run: as §3

[10] = Quantitative High-Throughput drug screen in 47 multiple myeloma cell lines against the NCATS MIPE library collection: JJN3_DSMZ cell viability assay (AID 1918966; note: nearly all actives have a fitted effect of over 50% in size); settings: JJN3 myeloma cells viability, CellTiter-Glo ATP, 48 h; viability, % of DMSO: at 45.8 µM (top of the series)
How it was run: as §4

[11] = Quantitative High-Throughput drug screen in 47 multiple myeloma cell lines against the NCATS MIPE library collection: H1112_PLB cell viability assay (AID 1918967; note: nearly all actives have a fitted effect of over 30% in size)
How it was run: as §4

[12] = Quantitative High-Throughput drug screen in 47 multiple myeloma cell lines against the NCATS MIPE library collection: KMS27_JCRB cell viability assay (AID 1918970); settings: KMS27 myeloma cells, CellTiter-Glo ATP viability, 48 h; viability (% of DMSO): at 45.8 µM (top of the series); note: nearly all actives have a fitted effect of over 30% in size
How it was run: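 CellTiter-Glo luminescence after 48 h drug exposure at 37 °C; 500 cells/well, 1536-well format, pin-tool compound addition; DMSO = 100%, media-only = 0% viability.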

[13] = Quantitative High-Throughput drug screen in 47 multiple myeloma cell lines against the NCATS MIPE library collection: Delta47_JCRB cell viability assay (AID 1918925; note: nearly all actives have a fitted effect of over 45% in size); settings: Delta47 myeloma viability, CellTiter-Glo ATP, 48 h; viability (% of DMSO): at 45.8 µM (top of the series)
How it was run: as §4

[14] = Quantitative High-Throughput drug screen in 47 multiple myeloma cell lines against the NCATS MIPE library collection: EJM_DSMZ cell viability assay (AID 1918926; note: nearly all actives have a fitted effect of over 30% in size)
How it was run: as §4

[15] = Quantitative High-Throughput drug screen in 47 multiple myeloma cell lines against the NCATS MIPE library collection: AMO1_DSMZ cell viability assay (AID 1918927; note: nearly all actives have a fitted effect of over 30% in size)
How it was run: as §4

[16] = Quantitative High-Throughput drug screen in 47 multiple myeloma cell lines against the NCATS MIPE library collection: KMM1_JCRB cell viability assay (AID 1918960); settings: KMM1 myeloma viability, CellTiter-Glo ATP luminescence, 48 h; viability (% of DMSO): at 45.8 µM (top of the series); note: nearly all actives have a fitted effect of over 30% in size
How it was run: as §2

[17] = Quantitative High-Throughput drug screen in 47 multiple myeloma cell lines against the NCATS MIPE library collection: JIM3_ECACC cell viability assay (AID 1918963; note: nearly all actives have a fitted effect of over 35% in size)
How it was run: as §1

[18] = Quantitative High-Throughput drug screen in 47 multiple myeloma cell lines against the NCATS MIPE library collection: Karpas25_ECACC cell viability assay (AID 1918968; note: nearly all actives have a fitted effect of over 35% in size); settings: Karpas25 myeloma viability, CellTiter-Glo ATP, 48 h; viability (% of control): at 45.8 µM (top of the series)
How it was run: as §4

[19] = Quantitative High-Throughput drug screen in 47 multiple myeloma cell lines against the NCATS MIPE library collection: ARD_JJKsccE7 cell viability assay (AID 1918929); settings: ARD myeloma cell line viability, CellTiter-Glo, 48 h; viability: at 45.8 µM (top of the series)
How it was run: as §4

Measured: Potency
Potency is the fitted concentration of half-maximal effect; tags give direction and shape of the fitted curve.

CC(C(=O)O)c1ccc2c(c1)[nH]c1ccc(Cl)cc12 (configuration not stated)
inconclusive: [1] 19 µM [inhibitor, partial curve, poor fit]

COc1cc2c(cc1OC)CN(CCc1ccc(NC(=O)c3cc(OC)c(OC)cc3NC(=O)c3cnc4ccccc4c3)cc1)CC2
active: [7] 20.9 µM | [10] 0.526 µM
inconclusive: [4] 0.003 µM [rising, full curve, poor fit] | [6] 0.0059 µM [rising, full curve, poor fit] | [8] 0.0012 µM [rising, full curve, poor fit] | [9] 29.6 µM [cytotoxic, single point] | [11] 9.35 µM [cytotoxic, full curve]
inactive: [2] | [3] | [5] | [12]

O=C(O)c1ccccc1C(=O)Nc1ccc(-c2ccccc2)cc1
active: [1] 23.9 µM
inconclusive: [2] 7.52 µM [inhibitor, partial curve] | [13] 0.0017 µM [cytotoxic, full curve, poor fit] | [14] 0.0019 µM [cytotoxic, full curve, poor fit] | [8] 0.166 µM [cytotoxic, full curve, poor fit] | [10] 0.0012 µM [cytotoxic, full curve, poor fit]
not listed: [6] | [11] | [17] | [18] | [19]
inactive: all other assays above

CC(C)(C(=O)O)c1ccc(C(O)CCCN2CCC(C(O)(c3ccccc3)c3ccccc3)CC2)cc1 (configuration not stated)
inactive: [2]

Cc1cc(C(C)(C)C)c(O)c(C)c1CC1=NCCN1
inactive: [13] | [4] | [16] | [7] | [17] | [11] | [18]
inconclusive: [2] 29.9 µM [inhibitor, partial curve, poor fit] | [6] 0.0042 µM [cytotoxic, full curve, poor fit] | [8] 11.8 µM [rising, single point] | [9] 0.0209 µM [rising, full curve, poor fit] | [10] 0.0012 µM [rising, full curve, poor fit] | [12] 0.0132 µM [cytotoxic, full curve, poor fit]

Cc1cccc(Nc2nc(-c3ccncc3)cs2)c1
active: [15] 11.8 µM
inconclusive: [2] 1.34 µM [inhibitor, full curve, poor fit] | [14] 18.7 µM [cytotoxic, single point] | [4] 18.7 µM [cytotoxic, partial curve] | [19] 41.8 µM [cytotoxic, partial curve, poor fit] | [5] 20.9 µM [cytotoxic, partial curve] | [6] 26.4 µM [cytotoxic, partial curve, poor fit] | [7] 26.4 µM [cytotoxic, single point] | [10] 26.4 µM [cytotoxic, single point] | [18] 20.9 µM [cytotoxic, partial curve]

Nc1nccc(Oc2ccc(NC(=O)c3c[nH]cc(-c4ccc(F)cc4)c3=O)cc2F)c1Cl
inconclusive: [3] 37.2 µM [cytotoxic, single point] | [5] 7.43 µM [cytotoxic, single point] | [6] 0.059 µM [rising, full curve, poor fit] | [8] 2.64 µM [cytotoxic, partial curve, poor fit] | [12] 2.96 µM [cytotoxic, full curve, poor fit]
active: [16] 2.96 µM | [10] 20.9 µM | [11] 20.9 µM
inactive: [2]

Cc1cc2c(s1)Nc1ccccc1N=C2N1CCN(C)CC1
inactive: [13] | [6] | [8]
inconclusive: [2] 21.2 µM [inhibitor, partial curve] | [19] 0.0209 µM [rising, full curve, poor fit] | [7] 0.0023 µM [rising, full curve, poor fit] | [9] 13.2 µM [cytotoxic, partial curve, poor fit] | [10] 3.72 µM [rising, partial curve, poor fit]
active: [18] 3.32 µM

COc1ccc2cc([C@H](C)C(=O)O)ccc2c1
inconclusive: [2] 2.99 µM [inhibitor, full curve] | [1] 26.9 µM [inhibitor, single point] | [13] 37.2 µM [cytotoxic, single point] | [6] 14.8 µM [rising, partial curve, poor fit] | [17] 33.2 µM [cytotoxic, single point] | [10] 3.72 µM [cytotoxic, full curve, poor fit] | [12] 0.105 µM [cytotoxic, full curve, poor fit]
inactive: [3] | [15] | [4] | [19] | [16] | [8] | [9]

COc1ccc(/C=C/C(=O)Nc2ccccc2C(=O)O)cc1OC
inactive: [2]
active: [1] 21.3 µM

COc1ccc(C2CC(c3ccccc3)=NN2c2ccc(S(N)(=O)=O)cc2)cc1 (configuration not stated)
active: [19] 23.5 µM | [8] 14.8 µM
inactive: [2] | [7]
inconclusive: [3] 37.2 µM [cytotoxic, single point] | [13] 14.8 µM [cytotoxic, partial curve, poor fit] | [14] 29.6 µM [cytotoxic, single point] | [4] 29.6 µM [cytotoxic, single point] | [6] 18.7 µM [cytotoxic, partial curve, poor fit] | [10] 11.8 µM [cytotoxic, partial curve, poor fit]

C=CC(=O)Nc1cccc(Sc2nc(Nc3ccc(N4CCN(C)CC4)cc3)ncc2Cl)c1
inconclusive: [3] 8.33 µM [cytotoxic, partial curve, poor fit] | [15] 3.32 µM [cytotoxic, partial curve, poor fit] | [4] 37.2 µM [cytotoxic, single point] | [19] 2.96 µM [cytotoxic, full curve, poor fit] | [5] 2.09 µM [cytotoxic, full curve, poor fit] | [16] 4.69 µM [cytotoxic, partial curve, poor fit] | [7] 2.64 µM [cytotoxic, full curve, poor fit] | [17] 20.9 µM [cytotoxic, partial curve, poor fit] | [9] 1.66 µM [cytotoxic, full curve, poor fit] | [11] 1.87 µM [cytotoxic, partial curve, poor fit] | [18] 2.35 µM [cytotoxic, full curve, poor fit] | [12] 4.18 µM [cytotoxic, partial curve, poor fit]
active: [2] 3.36 µM | [10] 37.2 µM

COc1cc(Oc2ccnc3cc(OC)c(OC)cc23)ccc1NC(=O)NC(C)c1nccs1 (configuration not stated)
active: [18] 23.5 µM | [12] 5.9 µM
inconclusive: [1] 30.1 µM [inhibitor, partial curve, poor fit] | [3] 8.33 µM [cytotoxic, partial curve, poor fit] | [13] 33.2 µM [cytotoxic, single point] | [15] 9.35 µM [cytotoxic, single point] | [4] 37.2 µM [cytotoxic, single point] | [19] 7.43 µM [cytotoxic, single point] | [16] 5.26 µM [cytotoxic, partial curve, poor fit] | [6] 37.2 µM [rising, single point] | [7] 7.43 µM [cytotoxic, partial curve, poor fit] | [9] 37.2 µM [cytotoxic, single point] | [10] 29.6 µM [cytotoxic, single point] | [11] 26.4 µM [cytotoxic, single point]

O=C(CCN1CCN(C(=O)OCc2cc(Cl)cc(Cl)c2)CC1)c1ccc2[nH]c(=O)oc2c1
inconclusive: [13] 4.18 µM [cytotoxic, full curve, poor fit] | [5] 0.0469 µM [cytotoxic, full curve, poor fit] | [6] 0.0372 µM [rising, full curve, poor fit] | [8] 1.05 µM [cytotoxic, full curve, poor fit] | [9] 33.2 µM [rising, single point] | [10] 7.43 µM [cytotoxic, full curve, poor fit] | [18] 1.05 µM [cytotoxic, partial curve, poor fit] | [12] 0.0469 µM [cytotoxic, full curve, poor fit]
inactive: [2] | [16]
